Patent US12043670B2, “Anti-BCMA antibody-drug conjugates and methods of use” (Eisai R&D Management Co., Ltd., priority 2020, dated 2024)

B1: AB200-R1H26-R2Vk35 (antibody)
heavy: QVQLVQSGAEVKKPGSSVKVSCKASGGSFSNYWMHWVRQAPGQGLEWMGATYRIHSDTFYNQKFKGRVTITADKSTSTAYMELSSLRSEDTAVYYCARGAIYHGYDVLDNWGQGTLVTVSSASTKGPSVFPLAPSSKSTSGGTAALGCLVKDYFPEPVTVSWNSGALTSGVHTFPAVLQSSGLYSLSSVVTVPSSSLGTQTYICNVNHKPSNTKVDKKVEPKSC
light: DIQMTQSPSSLSASVGDRVTITCRASQSISSYINWYQQKPGKAPKLLIYATSNLQSGVPSRFSGSGSGTDFTLTISSLQPEDFATYYCQQYRRIPWTFGQGTKLEIKRTVAAPSVFIFPPSDEQLKSGTASVVCLLNNFYPREAKVQWKVDNALQSGNSQESVTEQDSKDSTYSLSSTLTLSKADYEKHKVYACEVTHQGLSSPVTKSFNRGEC
B2: AB200-R1H26-R2Vk36 (antibody)
heavy: QVQLVQSGAEVKKPGSSVKVSCKASGGSFSNYWMHWVRQAPGQGLEWMGATYRIHSDTFYNQKFKGRVTITADKSTSTAYMELSSLRSEDTAVYYCARGAIYHGYDVLDNWGQGTLVTVSSASTKGPSVFPLAPSSKSTSGGTAALGCLVKDYFPEPVTVSWNSGALTSGVHTFPAVLQSSGLYSLSSVVTVPSSSLGTQTYICNVNHKPSNTKVDKKVEPKSC
light: DIQMTQSPSSLSASVGDRVTITCRASQSISSYINWYQQKPGKAPKLLIYATSNLQSGVPSRFSGSGSGTDFTLTISSLQPEDFATYYCQQFRRLPWTFGQGTKLEIKRTVAAPSVFIFPPSDEQLKSGTASVVCLLNNFYPREAKVQWKVDNALQSGNSQESVTEQDSKDSTYSLSSTLTLSKADYEKHKVYACEVTHQGLSSPVTKSFNRGEC
B3: AB200-R1H26-R2Vk44 (antibody)
heavy: QVQLVQSGAEVKKPGSSVKVSCKASGGSFSNYWMHWVRQAPGQGLEWMGATYRIHSDTFYNQKFKGRVTITADKSTSTAYMELSSLRSEDTAVYYCARGAIYHGYDVLDNWGQGTLVTVSSASTKGPSVFPLAPSSKSTSGGTAALGCLVKDYFPEPVTVSWNSGALTSGVHTFPAVLQSSGLYSLSSVVTVPSSSLGTQTYICNVNHKPSNTKVDKKVEPKSC
light: DIQMTQSPSSLSASVGDRVTITCRASQSISSYINWYQQKPGKAPKLLIYATSNLQIGVPSRFSGSGSGTDFTLTISSLQPEDFATYYCQQYRRLPWSFGQGTKLEIKRTVAAPSVFIFPPSDEQLKSGTASVVCLLNNFYPREAKVQWKVDNALQSGNSQESVTEQDSKDSTYSLSSTLTLSKADYEKHKVYACEVTHQGLSSPVTKSFNRGEC
B4: AB200-R1H26-R2Vk45 (antibody)
heavy: QVQLVQSGAEVKKPGSSVKVSCKASGGSFSNYWMHWVRQAPGQGLEWMGATYRIHSDTFYNQKFKGRVTITADKSTSTAYMELSSLRSEDTAVYYCARGAIYHGYDVLDNWGQGTLVTVSSASTKGPSVFPLAPSSKSTSGGTAALGCLVKDYFPEPVTVSWNSGALTSGVHTFPAVLQSSGLYSLSSVVTVPSSSLGTQTYICNVNHKPSNTKVDKKVEPKSC
light: DIQMTQSPSSLSASVGDRVTITCRASQSISSYINWYQQKPGKAPKLLIYATSNLQIGVPSRFSGSGSGTDFTLTISSLQPEDFATYYCQQYRRIPWTFGQGTKLEIKRTVAAPSVFIFPPSDEQLKSGTASVVCLLNNFYPREAKVQWKVDNALQSGNSQESVTEQDSKDSTYSLSSTLTLSKADYEKHKVYACEVTHQGLSSPVTKSFNRGEC
B5: AB200-R1H26-R2Vk46 (antibody)
heavy: QVQLVQSGAEVKKPGSSVKVSCKASGGSFSNYWMHWVRQAPGQGLEWMGATYRIHSDTFYNQKFKGRVTITADKSTSTAYMELSSLRSEDTAVYYCARGAIYHGYDVLDNWGQGTLVTVSSASTKGPSVFPLAPSSKSTSGGTAALGCLVKDYFPEPVTVSWNSGALTSGVHTFPAVLQSSGLYSLSSVVTVPSSSLGTQTYICNVNHKPSNTKVDKKVEPKSC
light: DIQMTQSPSSLSASVGDRVTITCRASQSISSYINWYQQKPGKAPKLLIYATSNLQIGVPSRFSGSGSGTDFTLTISSLQPEDFATYYCQQFRRLPWTFGQGTKLEIKRTVAAPSVFIFPPSDEQLKSGTASVVCLLNNFYPREAKVQWKVDNALQSGNSQESVTEQDSKDSTYSLSSTLTLSKADYEKHKVYACEVTHQGLSSPVTKSFNRGEC
B6: AB200-R1H26-R2Vk3 (antibody)
heavy: QVQLVQSGAEVKKPGSSVKVSCKASGGSFSNYWMHWVRQAPGQGLEWMGATYRIHSDTFYNQKFKGRVTITADKSTSTAYMELSSLRSEDTAVYYCARGAIYHGYDVLDNWGQGTLVTVSSASTKGPSVFPLAPSSKSTSGGTAALGCLVKDYFPEPVTVSWNSGALTSGVHTFPAVLQSSGLYSLSSVVTVPSSSLGTQTYICNVNHKPSNTKVDKKVEPKSC
light: DIQMTQSPSSLSASVGDRVTITCRASQSISSYLNWYQQKPGKAPKLLIYATSNLQSGVPSRFSGSGSGTDFTLTISSLQPEDFATYYCQQFRKLPWSFGQGTKLEIKRTVAAPSVFIFPPSDEQLKSGTASVVCLLNNFYPREAKVQWKVDNALQSGNSQESVTEQDSKDSTYSLSSTLTLSKADYEKHKVYACEVTHQGLSSPVTKSFNRGEC
B7: AB200-R1H26-R2Vk5 (antibody)
heavy: QVQLVQSGAEVKKPGSSVKVSCKASGGSFSNYWMHWVRQAPGQGLEWMGATYRIHSDTFYNQKFKGRVTITADKSTSTAYMELSSLRSEDTAVYYCARGAIYHGYDVLDNWGQGTLVTVSSASTKGPSVFPLAPSSKSTSGGTAALGCLVKDYFPEPVTVSWNSGALTSGVHTFPAVLQSSGLYSLSSVVTVPSSSLGTQTYICNVNHKPSNTKVDKKVEPKSC
light: DIQMTQSPSSLSASVGDRVTITCRASQSISSYLNWYQQKPGKAPKLLIYATSNLQIGVPSRFSGSGSGTDFTLTISSLQPEDFATYYCQQFRKLPWSFGQGTKLEIKRTVAAPSVFIFPPSDEQLKSGTASVVCLLNNFYPREAKVQWKVDNALQSGNSQESVTEQDSKDSTYSLSSTLTLSKADYEKHKVYACEVTHQGLSSPVTKSFNRGEC
B8: AB200-R1H26-R2Vk9 (antibody)
heavy: QVQLVQSGAEVKKPGSSVKVSCKASGGSFSNYWMHWVRQAPGQGLEWMGATYRIHSDTFYNQKFKGRVTITADKSTSTAYMELSSLRSEDTAVYYCARGAIYHGYDVLDNWGQGTLVTVSSASTKGPSVFPLAPSSKSTSGGTAALGCLVKDYFPEPVTVSWNSGALTSGVHTFPAVLQSSGLYSLSSVVTVPSSSLGTQTYICNVNHKPSNTKVDKKVEPKSC
light: DIQMTQSPSSLSASVGDRVTITCRASQSISSYLNWYQQKPGKAPKLLIYAASSLQSGVPSRFSGSGSGTDFTLTISSLQPEDFATYYCQQYRRLPWSFGQGTKLEIKRTVAAPSVFIFPPSDEQLKSGTASVVCLLNNFYPREAKVQWKVDNALQSGNSQESVTEQDSKDSTYSLSSTLTLSKADYEKHKVYACEVTHQGLSSPVTKSFNRGEC
B9: AB200-R1H26-R2Vk10 (antibody)
heavy: QVQLVQSGAEVKKPGSSVKVSCKASGGSFSNYWMHWVRQAPGQGLEWMGATYRIHSDTFYNQKFKGRVTITADKSTSTAYMELSSLRSEDTAVYYCARGAIYHGYDVLDNWGQGTLVTVSSASTKGPSVFPLAPSSKSTSGGTAALGCLVKDYFPEPVTVSWNSGALTSGVHTFPAVLQSSGLYSLSSVVTVPSSSLGTQTYICNVNHKPSNTKVDKKVEPKSC
light: DIQMTQSPSSLSASVGDRVTITCRASQSISSYLNWYQQKPGKAPKLLIYAASSLQSGVPSRFSGSGSGTDFTLTISSLQPEDFATYYCQQYRRIPWTFGQGTKLEIKRTVAAPSVFIFPPSDEQLKSGTASVVCLLNNFYPREAKVQWKVDNALQSGNSQESVTEQDSKDSTYSLSSTLTLSKADYEKHKVYACEVTHQGLSSPVTKSFNRGEC
B10: AB200-R1H26-R2Vk11 (antibody)
heavy: QVQLVQSGAEVKKPGSSVKVSCKASGGSFSNYWMHWVRQAPGQGLEWMGATYRIHSDTFYNQKFKGRVTITADKSTSTAYMELSSLRSEDTAVYYCARGAIYHGYDVLDNWGQGTLVTVSSASTKGPSVFPLAPSSKSTSGGTAALGCLVKDYFPEPVTVSWNSGALTSGVHTFPAVLQSSGLYSLSSVVTVPSSSLGTQTYICNVNHKPSNTKVDKKVEPKSC
light: DIQMTQSPSSLSASVGDRVTITCRASQSISSYLNWYQQKPGKAPKLLIYAASSLQSGVPSRFSGSGSGTDFTLTISSLQPEDFATYYCQQFRRLPWTFGQGTKLEIKRTVAAPSVFIFPPSDEQLKSGTASVVCLLNNFYPREAKVQWKVDNALQSGNSQESVTEQDSKDSTYSLSSTLTLSKADYEKHKVYACEVTHQGLSSPVTKSFNRGEC
B11: AB200-R1H26-R2Vk12 (antibody)
heavy: QVQLVQSGAEVKKPGSSVKVSCKASGGSFSNYWMHWVRQAPGQGLEWMGATYRIHSDTFYNQKFKGRVTITADKSTSTAYMELSSLRSEDTAVYYCARGAIYHGYDVLDNWGQGTLVTVSSASTKGPSVFPLAPSSKSTSGGTAALGCLVKDYFPEPVTVSWNSGALTSGVHTFPAVLQSSGLYSLSSVVTVPSSSLGTQTYICNVNHKPSNTKVDKKVEPKSC
light: DIQMTQSPSSLSASVGDRVTITCRASQSISSYLNWYQQKPGKAPKLLIYAASSLQSGVPSRFSGSGSGTDFTLTISSLQPEDFATYYCQQYRKIPWSFGQGTKLEIKRTVAAPSVFIFPPSDEQLKSGTASVVCLLNNFYPREAKVQWKVDNALQSGNSQESVTEQDSKDSTYSLSSTLTLSKADYEKHKVYACEVTHQGLSSPVTKSFNRGEC
B12: AB200-R1H26-R2Vk13 (antibody)
heavy: QVQLVQSGAEVKKPGSSVKVSCKASGGSFSNYWMHWVRQAPGQGLEWMGATYRIHSDTFYNQKFKGRVTITADKSTSTAYMELSSLRSEDTAVYYCARGAIYHGYDVLDNWGQGTLVTVSSASTKGPSVFPLAPSSKSTSGGTAALGCLVKDYFPEPVTVSWNSGALTSGVHTFPAVLQSSGLYSLSSVVTVPSSSLGTQTYICNVNHKPSNTKVDKKVEPKSC
light: DIQMTQSPSSLSASVGDRVTITCRASQSISSYLNWYQQKPGKAPKLLIYAASSLQSGVPSRFSGSGSGTDFTLTISSLQPEDFATYYCQQFRKIPWTFGQGTKLEIKRTVAAPSVFIFPPSDEQLKSGTASVVCLLNNFYPREAKVQWKVDNALQSGNSQESVTEQDSKDSTYSLSSTLTLSKADYEKHKVYACEVTHQGLSSPVTKSFNRGEC

test: ThermoFluor thermostability (Tm); assay type: physicochemical; conditions: Light chain screening Round 2; Fab, paired with heavy chain AB200_R1_VH26

Molecule | Tm [°C]
B1 | 79.657
B2 | 84.360
B3 | 79.402
B4 | 80.255
B5 | 83.993
B6 | 82.928
B7 | 82.925
B8 | 79.850
B9 | 80.527
B10 | 82.940
B11 | 79.775
B12 | 83.187
